Laboratory results published in the supplement of paper PMC7125110.
Variants at the background level are over-represented here.

B1: glmS ribozyme (parent)
chain: AUAAAAGCGCCAGAACUACAGAAAUGUAGUUGACGAGGAGGAGGUUUAUCGAAUUUUCGGCGGAUGCCUCCAAA

Key:
Conditions in all cases: with glucosamine-6-phosphate
glucosamine-6-phosphate [1] = variants of: B1; experiment: kcat; higher = faster cleavage; RNA array
In short: (§1)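 Barcoded ribozyme variants were transcribed in situ on sequenced MiSeq chips by E. coli RNA polymerase. At 37 °C, a hybridised Cy3 probe tracked them while glucosamine-6-phosphate (40 μM to 10 mM) in HEPES/KCl/Mg(OAc)2 buffer flowed in and tiles were imaged over ~14 h. Per-tile medians of signals normalised to baseline and to non-cleaving reference variants were fit to one- or two-exponential decays, giving kobs. kcat and KM came from weighted Michaelis–Menten fits across concentrations.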

glucosamine-6-phosphate [2] = variants of: B1; experiment: self-cleavage kobs at 40 uM GlcN6P; higher = faster cleavage; RNA array
In short: as §1

glucosamine-6-phosphate [3] = variants of: B1; experiment: self-cleavage kobs at 160 uM GlcN6P; higher = faster cleavage; RNA array
In short: as §1

glucosamine-6-phosphate [4] = variants of: B1; experiment: self-cleavage kobs at 10000 uM GlcN6P; higher = faster cleavage; RNA array
In short: as §1

glucosamine-6-phosphate [5] = variants of: B1; experiment: self-cleavage kobs at 640 uM GlcN6P; higher = faster cleavage; RNA array
In short: as §1

glucosamine-6-phosphate [6] = variants of: B1; experiment: self-cleavage kobs at 2500 uM GlcN6P; higher = faster cleavage; RNA array
In short: as §1

| Variant | kcat (glucosamine-6-phosphate [1]) [s⁻¹] | self-cleavage kobs at 40 uM GlcN6P (glucosamine-6-phosphate [2]) [s⁻¹] | self-cleavage kobs at 160 uM GlcN6P (glucosamine-6-phosphate [3]) [s⁻¹] | self-cleavage kobs at 10000 uM GlcN6P (glucosamine-6-phosphate [4]) [s⁻¹] | self-cleavage kobs at 640 uM GlcN6P (glucosamine-6-phosphate [5]) [s⁻¹] | self-cleavage kobs at 2500 uM GlcN6P (glucosamine-6-phosphate [6]) [s⁻¹] |
| --- | --- | --- | --- | --- | --- | --- |
| A33G G37C | < 1e-05 | < 1e-05 | < 1e-05 |  |  |  |
| A33G G43U | < 1e-05 |  | < 1e-05 | < 1e-05 |  |  |
| C34A C70A | < 1e-05 |  | < 1e-05 |  |  |  |
| C34U A53U | < 1e-05 | < 1e-05 |  | < 1e-05 | < 1e-05 | < 1e-05 |
| G35A G37U | < 1e-05 |  |  |  | < 1e-05 |  |
| G35C C58G | < 1e-05 | < 1e-05 | < 1e-05 | < 1e-05 | < 1e-05 |  |
| A36C G38C | < 1e-05 |  |  | < 1e-05 |  |  |
| A36C G51U | < 1e-05 |  | < 1e-05 | < 1e-05 | < 1e-05 |  |
| A36G A39C | < 1e-05 | < 1e-05 |  | < 1e-05 | < 1e-05 | < 1e-05 |
| A36G G38C G51U G66U C68A | < 1e-05 |  |  |  |  | < 1e-05 |
| A36G U69C | < 1e-05 |  | < 1e-05 |  |  |  |
| A36U A53G | < 1e-05 |  | < 1e-05 |  |  |  |
| A36U C67A | < 1e-05 |  |  |  |  |  |
| A36U C70U | < 1e-05 | < 1e-05 |  |  |  |  |
| A36U G37U | < 1e-05 |  |  |  |  |  |
| A36U U65A | < 1e-05 |  | < 1e-05 |  |  | < 1e-05 |
| G37C A52U | < 1e-05 | < 1e-05 | < 1e-05 | < 1e-05 |  |  |
| G37C C67G | < 1e-05 |  |  |  |  |  |
| G37C U65G | < 1e-05 | < 1e-05 | < 1e-05 |  |  |  |
| G37U G38U | < 1e-05 | < 1e-05 |  |  | < 1e-05 | < 1e-05 |
| G37U U45G | < 1e-05 |  |  | < 1e-05 | < 1e-05 |  |
| G37U U47C | < 1e-05 |  | < 1e-05 |  |  |  |
| G38A | < 1e-05 |  |  |  |  |  |
| G38A A48G | < 1e-05 | < 1e-05 |  |  |  |  |

| Variant | kcat (glucosamine-6-phosphate [1]) [s⁻¹] | self-cleavage kobs at 40 uM GlcN6P (glucosamine-6-phosphate [2]) [s⁻¹] | self-cleavage kobs at 160 uM GlcN6P (glucosamine-6-phosphate [3]) [s⁻¹] | self-cleavage kobs at 10000 uM GlcN6P (glucosamine-6-phosphate [4]) [s⁻¹] | self-cleavage kobs at 640 uM GlcN6P (glucosamine-6-phosphate [5]) [s⁻¹] | self-cleavage kobs at 2500 uM GlcN6P (glucosamine-6-phosphate [6]) [s⁻¹] |
| --- | --- | --- | --- | --- | --- | --- |
| G38A C68U | < 1e-05 | < 1e-05 | < 1e-05 |  | < 1e-05 |  |
| G38A G63U | < 1e-05 |  | < 1e-05 |  |  |  |
| G38A U69C | < 1e-05 |  |  |  |  |  |
| G38C | < 1e-05 |  | < 1e-05 |  |  |  |
| G40A G59A | < 1e-05 | < 1e-05 |  |  | < 1e-05 |  |
| G40C C58U | < 1e-05 | < 1e-05 | < 1e-05 |  |  |  |
| G40C U57G | < 1e-05 | < 1e-05 | < 1e-05 |  | < 1e-05 |  |
| G41C U69C | < 1e-05 | < 1e-05 | < 1e-05 |  |  |  |
| G43A U57G | < 1e-05 |  |  |  | < 1e-05 |  |
| G43C C70A | < 1e-05 | < 1e-05 |  | < 1e-05 | < 1e-05 |  |
| U46A A64U | < 1e-05 | < 1e-05 |  | < 1e-05 |  |  |
| U47A G51A | < 1e-05 | < 1e-05 |  |  | < 1e-05 |  |
| U47C A48G | < 1e-05 | < 1e-05 | < 1e-05 | < 1e-05 | < 1e-05 |  |
| A48G A52U | < 1e-05 | < 1e-05 | < 1e-05 |  |  |  |
| A48G C61G | < 1e-05 |  |  | < 1e-05 |  |  |
| U49A C50U | < 1e-05 | < 1e-05 |  |  |  |  |
| U49G C50U | < 1e-05 |  | < 1e-05 |  |  |  |
| C50A U55C | < 1e-05 |  |  |  |  |  |
| C50U G62A | < 1e-05 |  |  | < 1e-05 |  |  |
| G51A C68U | < 1e-05 |  |  |  |  |  |
| G51A U56A | < 1e-05 |  | < 1e-05 |  |  | < 1e-05 |
| G51C G60A | < 1e-05 |  |  |  | < 1e-05 | < 1e-05 |
| G51U A64C | < 1e-05 | < 1e-05 |  |  | < 1e-05 | < 1e-05 |
